Our source for the activity change, negative = inhibition values is PubChem BioAssay AID1745853 (National Center for Advancing Translational Sciences (NCATS), 2022).

Common to all, as to test: Primary Screen for Target Class Profiling of Small Molecule Inhibitors of Methyltransferases
For assay [1], the target named is Glycine N-methyltransferase (Homo sapiens) (UniProt Q14749). To be noted: purified enzyme, MTase-Glo SAH luminescence; measured here: GNMT inhibition; at 40 µM; stronger effect = lower value. The essentials: (§1)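 Each enzyme was assayed with SAM and its substrate. SAH formation detected by MTase-Glo luminescence; single-point 40 uM screen[…].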
The target in assay [2] is Guanidinoacetate N-methyltransferase (Homo sapiens) (UniProt Q14353). The following applies: purified enzyme, MTase-Glo SAH luminescence; measured here: GAMT inhibition; at 40 µM; stronger effect = lower value. The procedure, abridged:
as §1

For assay [3], the target named is Histamine N-methyltransferase (Homo sapiens) (UniProt P50135). The following applies: purified enzyme, MTase-Glo SAH luminescence; measured here: HNMT inhibition; at 40 µM; stronger effect = lower value. The essentials: as §1
Assay [4] addresses Nicotinamide N-methyltransferase (Homo sapiens) (UniProt P40261). To be noted: purified enzyme, MTase-Glo SAH luminescence; measured here: NNMT inhibition; at 40 µM; stronger effect = lower value. The essentials:
as §1

Assay [5] concerns the target Phenylethanolamine N-methyltransferase (Homo sapiens) (UniProt P11086). The following applies: purified enzyme, MTase-Glo SAH luminescence; measured here: PNMT inhibition; at 40 µM; stronger effect = lower value. The essentials: as §1

Some of the results follow. Shown are side measurements of this screen, not its main read-out; they come without a call.
% is set by controls: 0 for no effect and ±100 for the full control effect.

In the case of `CCOc1ccc(CN2C(=O)c3ccc(-c4ccccc4)n3CC2(C)C(=O)NC2CCCC2)cc1` (stereo not given), the activity change, negative = inhibition was -4.95% in assay [1]; 2.19% in assay [2]; -1.74% in assay [3]; -1.62% in assay [4]; -0.45% in assay [5].
On the same counts, the results for `Cc1cccc(NC(=O)Cn2c(=O)oc3cc(S(=O)(=O)NCc4ccccc4)ccc32)c1` are -6.23%, 1.13%, 3.99%, 5.57% and -5.72%.
For `CO[C@H]1C[C@@H]2CC[C@@H](C)[C@@](O)(O2)C(=O)C(=O)N2CCCC[C@H]2C(=O)O[C@H]([C@H](C)C[C@@H]2CC[C@@H](OC(=O)C(C)(CO)CO)[C@H](OC)C2)CC(=O)[C@H](C)/C=C(\C)[C@@H](O)[C@@H](OC)C(=O)[C@H](C)C[C@H](C)/C=C/C=C/C=C/1C` the same measures were 1.55%, 17.8%, 4.56%, 0.736% and 5.4%.
For the compound `CCN(CC)CCCNC(=O)CCc1nnc2n(Cc3ccccc3)c(=O)c3ccccc3n12`, the activity change, negative = inhibition was -4.2% in assay [1]; 0% in assay [2]; -36.4% in assay [3]; 8.95% in assay [4]; 2.35% in assay [5].
On the same counts, the results for `CC(C)CNC(=O)c1ccc2c(=O)n(CC(C)C)c3nn(CC(=O)Nc4ccccc4)c(=O)n3c2c1` are 9.77%, 2.36%, 11.7%, 7.39% and 8.24%.
For `Cc1ccn(CC(=O)N2CCCn3ccnc3C2c2cnn(C)c2)n1` (stereo not given) the same measures were -1.48%, -13.3%, -0.47%, -9.75% and -1.79%.
For `O=C(Cn1ccc2cc(S(=O)(=O)N3CCCCC3)ccc21)NCCC1=CCCCC1` the same measures were 0.757%, 0%, -1.7%, -5.26% and -4.63%.
Turning to `O=S(=O)(Nc1ccc(Cl)c(C(F)(F)F)c1)c1ccc2[nH]c3c(c2c1)CCCC3`, the activity change, negative = inhibition is -17% in assay [1]; -3.15% in assay [2]; -5.9% in assay [3]; -16.4% in assay [4]; -2.12% in assay [5].
On the same counts, the results for `CC(C)c1ccc(-c2cc3n(n2)CC(C)(C(=O)NC2CCCCC2)N(Cc2ccco2)C3=O)cc1` (stereo not given) are -7.33%, 4.46%, -1.06%, 2.8% and -1.68%.
On the same counts, the results for `Cc1ccc(C2c3cccn3-c3sc4c(c3CN2C(=O)NC(C)C)CCCC4)cc1` (stereo not given) are -4.62%, 0%, 9.95%, 7.91% and 4.74%.
On the same counts, the results for `O[C@H]1[C@H](NCc2cnc3ccccc3c2)[C@H]2CO[C@H](O2)[C@@H]1N1CCCCC1` are -2.62%, -6.84%, -4.11%, -10.4% and -0.96%.
Consider `COc1ccccc1CNC(=O)C1(C)Cn2cnc(C(=O)Nc3ccccc3OC)c2C(=O)N1C1CC1` (stereo not given), for which the activity change, negative = inhibition was found to be 2.15% in assay [1]; 0% in assay [2]; 14.3% in assay [3]; 6.65% in assay [4]; 9.29% in assay [5].
On the same counts, the results for `C=C1CC2OC(=O)C(=C)C2C(O)/C=C(\C)CCC1O` (stereo not given) are 0.846%, -2.22%, 6.5%, -11.1% and -4.29%.
For `Cc1cnn(CCC(=O)NC2CCc3nnc(C)n3CC2)c1` (stereo not given) the same measures were 0.819%, 0.666%, 1.22%, -0.741% and 4.78%.
On the same counts, the results for `O=C(CCc1cc2n(n1)CCCNC2)Nc1ccc2c(c1)OCCO2` are -13.2%, -12.3%, -9.1%, -18.3% and -26%.
As to `Cn1cc(-c2ccc3nnc(Sc4ccc5nn(C)cc5c4)n3n2)cn1`, the activity change, negative = inhibition is -21.5% in assay [1]; 1.96% in assay [2]; 3.42% in assay [3]; -16.4% in assay [4]; -1.36% in assay [5].
On the same counts, the results for `CC(C)CCn1c(=O)c2ccccc2n2c(=O)n(Cc3ccc(F)cc3)nc12` are 4.72%, 1.31%, 10.4%, -1.79% and 6.37%.
On the same counts, the results for `Cc1nc(CN2CCN(c3cc(C4CC(O)C4)ncn3)CC2)cs1` (stereo not given) are -5.03%, -7.65%, -1.35%, -6.45% and -3.79%.
On the same counts, the results for `O=C(c1cccnc1)N1CCC2(CC1)C(=O)NN=C2c1cccnc1` are -6.16%, -8.62%, -1.47%, -20.5% and -8.8%.
For the compound `COc1ccccc1CNC(=O)c1cc2n(n1)CC(C)(C(=O)NC1CCCCCC1)N(C)C2=O` (stereo not given), the activity change, negative = inhibition is 0.638% in assay [1]; 4.68% in assay [2]; -0.408% in assay [3]; 3.55% in assay [4]; 0.063% in assay [5].
Regarding `CCCn1c(=O)c2ccccc2n2c(=O)n(CC(=O)c3ccccc3)nc12`, the activity change, negative = inhibition in assay [1] was -2.28%; in assay [2], 0.136%; in assay [3], 8.12%; in assay [4] it was -12.9%; in assay [5], 4.24%.
On the same counts, the results for `C/C(=C\CCC(C)C1CC(O)C2(C)C3CCC4C(C)(C)C(OC5OCC(O)C(O)C5O)CCC45CC35CC(O)C12C)C(=O)O` (stereo not given) are -1.4%, -5.66%, 6.02%, -15.8% and 0.081%.
On the same counts, the results for `CC(=O)OC(C)C(C)(O)C(=O)O[C@@H]1CC[C@]2(C)CC(=O)C(=C(C)C)C[C@H]2[C@]1(C)OC(C)=O` (stereo not given in full) are -0.844%, 2.95%, 3.85%, -9.45% and -5.12%.
Regarding `O=C1COCC2(CN(CCC(F)(F)F)C2)CN1Cc1cccc(OC(F)(F)F)c1`, the activity change, negative = inhibition in assay [1] is -0.924%; in assay [2], -5.23%; in assay [3], -0.634%; in assay [4] it was -8.35%; in assay [5] it was 4.89%.
For `Cn1c(=O)n(C)c2cc(S(=O)(=O)N(Cc3ccccc3)C(=O)c3ccco3)ccc21` the same measures were 4.15%, -17.9%, 3.82%, -24% and -0.348%.
On the same counts, the results for `CCCn1c(=O)c2ccc(Cl)cc2n2c(=O)n(CC(=O)NC3CCCCC3)nc12` are 2.85%, 0%, 5.3%, -0.598% and -0.776%.
On the same counts, the results for `CCC1c2ccc(C)n2CCN1C(=O)Nc1ccccc1OC` (stereo not given) are -7.19%, 0%, -6.22%, 6.17% and -1.51%.
For the compound `Cc1ccc(NC(=O)CN(C)S(=O)(=O)c2ccc3[nH]c4c(c3c2)CCCC4)cc1C`, the activity change, negative = inhibition in assay [1] worked out at 3.58%; in assay [2], 0.131%; in assay [3], 5.96%; in assay [4], 1.05%; in assay [5] it was 2.41%.
For `CCCn1c(=O)c2ccccc2n2c(SCc3cccc(C)c3)nnc12` the same measures were -6.46%, 1.62%, 3.83%, -8.15% and 2.66%.
